# In PubChem BioAssay AID686979 (National Center for Advancing Translational Sciences (NCATS), 2013):
# In all, about 420,000 compounds went through this assay and about 50,000 (12%) were called active. This list was built around the results that the source calls inconclusive (neither active nor inactive); the mix of calls is not that of the screen. Calls follow the shape of the dose curve; as a rule, active = well fitted inhibition curve with a large enough effect; inconclusive = small, poorly fitted or top-dose-only effect; inactive = flat fitted curve, though single readings scatter. No potency is given beside an inconclusive call; the fits are too rough.
# Experiment: qHTS for Inhibitors of human tyrosyl-DNA phosphodiesterase 1 (TDP1): qHTS in cells in presence of CPT; also: nearly all actives have a fitted effect of over 55% in size
# Details: chicken DT40 Tdp1-/-;hTDP1 cells + 20 nM CPT, ATP luminescence, 48 h; activity change, negative = growth inhibition: at 46.2 µM (top of the series)
# How it was run: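 Chicken DT40 Tdp1-/- cells complemented with human TDP1, 400 cells/well, exposed to compounds plus 20 nM camptothecin for at least 48 h at 37 C; viability read as ATP content by CellTiter-Glo luminescence.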
# % is scaled to controls: 0 for no effect and ±100 for the full control effect; potency is read from the fitted curve at half-maximal effect; tags tell the direction and shape of the fitted curve.
SMILES,Potency,"activity change, negative = growth inhibition"
CCCCC1=CC2=C(c3ccco3)C(=O)C(C)(OC(=O)c3ccc(OC)cc3)C(=O)C2=CN1Cc1ccccc1 (stereo not given),active: 5.17 µM,–
Cc1c(Cl)ccc2sc(N3CCN(C(=O)C(C)C)CC3)nc12,active: 11.6 µM,–
COc1ccc(CC(=O)Nc2ccc3nc(Nc4ccc(OC)cc4)cc(C)c3c2)cc1,"inconclusive [inhibitor, single point]",–
COc1cc2c(cc1[N+](=O)[O-])-c1ccc([N+](=O)[O-])cc1C2=NNC(N)=S,"inconclusive [inhibitor, full curve, poor fit]",–
COc1ccc(Nc2nc3ccccc3nc2NS(=O)(=O)c2cccs2)cc1,"inconclusive [inhibitor, partial curve]",–
CCCOC(=O)C(C)n1cnc2sc(C)c(C)c2c1=O (stereo not given),"inconclusive [inhibitor, single point]",–
O=C(Nc1cccc(S(=O)(=O)NC2=NCCC2)c1)c1cc(F)c(F)c(F)c1F,inactive,–
Cn1c(SCC(=O)Nc2ccccc2)nnc1-c1ccc2nonc2c1,inactive,–
Cc1ccc(C)c(NC(=O)CN(C)S(=O)(=O)c2ccc3c(c2)CCC(=O)N3)c1,inactive,–
CCOC(=O)c1cccc(NC(=O)/C=C/c2ccc3c(c2)OCO3)c1,"inconclusive [inhibitor, single point]",–
Cc1cccc(C(=O)NNC(=O)c2ccc3ccccc3c2)c1,inactive,–
O=C(/C=C/c1cccc([N+](=O)[O-])c1)OCC(=O)N1CCCCC1,inactive,–
COc1ccc(Nc2c3ccccc3nc3ccccc23)cc1,"inconclusive [inhibitor, single point]",–
Cc1cc(O)c(N=Cc2cc3c(cc2[N+](=O)[O-])OCO3)cc1C,"inconclusive [inhibitor, single point]",–
Cc1ccc(CN2CCN(Cc3ccc(-n4cccn4)cc3C)CC2CCO)cc1 (stereo not given),–,inconclusive: -33.2% [inhibitor]
Cc1ccc(-c2nc(CSCC(=O)NCCCN3CCOCC3)c(C)o2)cc1,inactive,–
CCOC(=O)c1cc(-c2ccc(OC)cc2)n(CCC(=O)NCc2ccc(OC)cc2)c1C,"inconclusive [inhibitor, single point]",–
Cc1ccc(NC(=S)N2CCC(c3ccc(C)cc3)C2)cc1 (stereo not given),"inconclusive [inhibitor, single point]",–
Cc1ccc(S(=O)(=O)N2CCN(CC(=O)N3CCCC3)CC2)c(C)c1,inactive,–
COc1ccc(C)cc1NC(=O)CCC(=O)Nc1ccc2nc(N3CCN(C)CC3)cc(C)c2c1,"inconclusive [inhibitor, single point]",–
COc1ccc(CCNC(=O)CSCc2ccc([N+](=O)[O-])cc2)cc1,inactive,–
Cc1cccc(Nc2n[nH]c(C)c2[N+](=O)[O-])c1,inactive,–
COc1ccc(Nc2nc(C(=O)N(CCO)Cc3ccccc3)cs2)cc1,"inconclusive [inhibitor, single point]",–
N#C/C(=N/Nc1ccc(OC(F)(F)F)cc1)C(N)=S,active: 2.31 µM,–
Cc1[nH]nc(SCC(=O)N2CCC(C)CC2)c1[N+](=O)[O-],inactive,–

SMILES,Potency,"activity change, negative = growth inhibition"
CC(=O)Nc1ccc(-c2ccnc3c2CC(C(=O)Nc2cccc(N(C)C)c2)O3)cc1 (stereo not given),active: 18.4 µM,–
O=C(CN(c1cc(C(F)(F)F)ccc1Cl)S(=O)(=O)c1ccccc1)NCc1cccnc1,active: 20.6 µM,–
O=C(Nc1ccccc1)C1CCCN1/C=C/C(=O)C(F)(F)F (stereo not given),inactive,–
Cn1nc(C(=O)Nc2nc(-c3ccc(F)cc3)cs2)ccc1=O,"inconclusive [inhibitor, partial curve]",–
CC(C(=O)c1ccccc1)n1cnc2ccccc2c1=O (stereo not given),"inconclusive [inhibitor, single point]",–
CC(=O)c1ccccc1C(=O)N1CCCC(CNC(=O)c2ccc(F)cc2)C1 (stereo not given),inactive,–
CCOc1ccc(NC(=O)CN(C)C(=O)c2cc(S(=O)(=O)N3CCCCC3)ccc2C)cc1OCC,"inconclusive [inhibitor, single point]",–
COc1cccc(CNC(=O)c2ccc(CS(=O)(=O)Cc3ccccc3C)o2)c1,active: 29.1 µM,–
Cc1nc2ccc(NC(=O)N3CCCCC3)cc2nc1C,inactive,–
CS(=O)(=O)Nc1cccc(C2=NN(C(=O)c3ccco3)C(c3ccco3)C2)c1 (stereo not given),active: 16.4 µM,–
Cc1ccc(Nc2nnc(-c3ccccc3N)o2)cc1C,inactive,–
Cc1cc(C)cc(OCc2ccc(C(=O)N3N=C(C(F)F)CC3(O)C(F)F)o2)c1 (stereo not given),"inconclusive [inhibitor, single point]",–
CCOc1ccc(Cl)cc1-c1cc(C(=O)NC(C)C)[nH]n1,"inconclusive [inhibitor, single point]",–
O=C(CC[C@H]1O[C@@H](n2ccc(=O)[nH]c2=O)[C@H](O)[C@@H]1O)NCc1ccc2c(c1)OCO2,inactive,–
Oc1[nH]c2ccccc2c1N=NC(=S)N1CCOCC1,active: 1.64 µM,–
CCC(C)Sc1ccc(-c2nc3ccc(C)cn3c2NC2CCCCC2)cc1 (stereo not given),active: 7.31 µM,–
Cc1cc(N(CCO)CCO)nc(-n2nc(C)cc2C)n1,inactive,–
Cn1cccc1C(=O)N1CCC2(CC1)CCN(C(c1ccccc1)c1ccccc1)CC2,"inconclusive [inhibitor, partial curve, poor fit]",–
C=CCn1c(C)cc(-c2csc(NC)n2)c1C,"inconclusive [inhibitor, single point]",–
c1ccc(Nc2ccnc(Nc3ccccc3)n2)cc1,"inconclusive [inhibitor, partial curve]",–
CC(=O)c1cccc(CN2CCCC(C(=O)Nc3ccc(-c4ccco4)cc3)C2)c1 (stereo not given),active: 14.6 µM,–
NC(=O)c1ccccc1N/C=C/C(=O)c1ccc(Cl)cc1Cl,"inconclusive [inhibitor, single point]",–
CC(C)c1nnc(NC(=O)CCS(=O)(=O)Cc2ccccc2)s1,inactive,–
Cc1ccc(OCCNC(=O)c2cccc(Oc3ccc(C(F)(F)F)cc3[N+](=O)[O-])c2)cc1,"inconclusive [inhibitor, single point]",–
COc1ccccc1C(C)NCC(=O)NC(=O)NCc1ccco1 (stereo not given),inactive,–

SMILES,Potency,"activity change, negative = growth inhibition"
CCCCCC(=O)N1C[C@H](O)[C@@H](n2cc(-c3ccc(F)cc3)nn2)C[C@@H]1c1ccc(C)cc1,"inconclusive [inhibitor, single point]",–
CSCCC(NC(=O)CCNC(=O)c1ccccc1Cl)c1nc2ccccc2[nH]1 (stereo not given),inactive,–
CC(C)CN1CCN=C1Nc1ccccc1,inactive,–
COCCC(=O)NCC1Cc2cc(Cl)cc(-c3ccc4[nH]ccc4c3)c2O1 (stereo not given),"inconclusive [inhibitor, single point]",–
COc1cc(OC)c(C2Nc3cccc4cccc(c34)N2)c(OC)c1,active: 20.6 µM,–
CC1CCc2c(sc3ncnc(NCCN4CCOCC4)c23)C1 (stereo not given),inactive,–
CCCCN(CC(O)COc1cccc(C)c1)CC(O)COc1cccc(C)c1 (stereo not given),"inconclusive [inhibitor, single point]",–
Cc1cc(C(=O)N2CCN(c3cccc(C)c3C)CC2)c2c(C)nn(-c3ccccc3)c2n1,"inconclusive [inhibitor, partial curve]",–
COC/C=C/C1=CC2=CC(=O)C(C)(OC(=O)c3cnc4ccccc4n3)C(=O)C2=CN1CCN1CCOCC1 (stereo not given),"inconclusive [inhibitor, single point]",–
CCOC(=O)C1=C(C)NC(C)=C(C(=O)OCC)C1C(=O)OCC(=O)NC1CCCCC1,active: 25.9 µM,–
CC(C)c1ccc(C2CC(=O)N3CN(Cc4ccco4)CSC3=C2C#N)cc1 (stereo not given),inactive,–
CCN(CC)c1cc(CS(=O)c2ccccc2)nc(-c2ccccc2)n1 (stereo not given),active: 20.6 µM,–
Cc1nc2ccccn2c1C(=O)N/N=C/c1ccc([N+](=O)[O-])o1,active: 2.91 µM,–
CC1(C)O[C@@H]1COc1c2ccoc2cc2oc(=O)ccc12,active: 11.6 µM,–
Cc1cc2nc(C(C)(C)C)c(Cc3ccccc3C(F)(F)F)n2c(C)c1Br,"inconclusive [inhibitor, single point]",–
Cn1c(=S)c2[nH]c(SCc3cccnc3)nc2n(C)c1=O,"inconclusive [inhibitor, single point]",–
CC(=O)c1sc(NC(=O)c2oc3ccc(F)cc3c2C)nc1C,inactive,–
O=C(Nc1ccccc1Cl)c1cc(C2CCCN(C(=O)C3CCCCC3)C2)on1 (stereo not given),"inconclusive [inhibitor, single point]",–
Cc1ccc(C(=O)c2cn(CC(=O)NCc3ccccc3Cl)c3nc(C)ccc3c2=O)cc1,"inconclusive [inhibitor, single point]",–
CC1(C)CC(=O)C=C(c2ccc(-c3cccc4c3sc3ccccc34)cc2)C1=O,"inconclusive [inhibitor, single point]",–
Cn1c(=O)c2cc(NC(=O)NCCc3cccs3)ccc2n1Cc1cccc(C(F)(F)F)c1,"inconclusive [inhibitor, single point]",–
CCCCNC(=S)N1CCn2cccc2C1c1ccccc1 (stereo not given),"inconclusive [inhibitor, single point]",–
CCCc1cc(C(=O)N2CCCC(Nc3ccc(C)c(C)c3)C2)n(C)n1 (stereo not given),–,inconclusive: -30.1% [inhibitor]
Cc1ccc(C(OCC(O)CNC(C)c2ccccc2)c2ccccc2)cc1 (stereo not given),active: 7.31 µM,–
Cc1ccc(/C=N/NC(=O)c2nnn(-c3nonc3N)c2CNc2ccccc2)cc1,"inconclusive [inhibitor, single point]",–
